# From patent US6096871A, “Polypeptides altered to contain an epitope from the Fc region of an IgG molecule for increased half-life” (Genentech, Inc., priority 1995, dated 2000)
# B1: Fab v1B: Fab v1b incorporated oligos V1A and V1B (SEQ ID NO: 10) (antibody)
# heavy: ASTKGPSVFPLAPSPKNSSMISNTPALGCLVKDYFPEPVTVSWNSGALTSGVHTFPAVLQSSGLYSLSSVVTVPHQSLGTQTYICNVNHKPSNTKVDKRV
# Experiment: Single-dose pharmacokinetic study of anti-CD11/18 constructs in mice after intravenous administration (MAC-1 capture ELISA, two-compartment model)
# Design: species or system mouse (male Crl:CD-1 (ICR)BR VAF/Plus)
# Conditions: mouse, in vivo
# Procedure: Pharmacokinetic Study of Anti-CD11/18 Constructs in Mice after Intravenous Administration
# The objective of this single-dose pharmacokinetic study of five humanized huH52 anti-CD18 antibody fragments (constructs) in mice was to determine if non-specific clearance of antibody fragments is affected by alterations to amino acids in the constant domain. Serum samples were collected from male CD1 mice over a 24-hour period and human anti-CD18 serum concentrations were measured by ELISA.
# The anti-CD18 antibody fragments investigated were derived from E.-coli-produced recombinant humanized monoclonal Fab antibody fragments as described above. The Fab fragment and the construct in which two Fab' subunits were joined together by two disulfide bonds were investigated. Lastly, three new versions of the original Fab were constructed by altering amino acids in the constant domain. See the Study Design table below for further description of the constructs.
# The construct antigen-binding sites are directed against the CD18 subunit of the CD11 /CD18 glycoprotein complex on the surface of leukocytes. These antibody fragments are chimpanzee and human-specific; therefore, the serum pharmacokinetic information obtained in mice provides a description of the non-specific clearance of the fragments.
# Because linear pharmacokinetics were expected in this study, a single-dose level of 2 mg/kg was chosen rather than multiple-dose levels.
# The pharmacokinetics of the five antibody constructs were studied in male Crl:CD-1® (ICR)BR VAF/Plus® mice (approximately 20-30 g). Five groups, each consisting of twenty mice, received an intravenous bolus dose of 2 mg/kg via the tail vein. Blood samples were collected at 5 and 30 minutes, 1, 2, 4, 8, 12, 16, 20, and 24 hours post-dose. Serum was harvested and concentrations of the antibody fragments were determined in a MAC-1 capture ELISA as follows:
# 96-Well microtiter plates were coated overnight with murine anti-CD18 monoclonal antibody. After overnight incubation at 4° C., plates were washed three times with ELISA wash buffer and blocked for 1 hour with ELISA diluent. ELISA wash buffer is phosphate-buffered saline (PBS)/0.05% Polysorbate™ 20. […] The expiration period is 2 weeks from the date of preparation.
# The ELISA diluent was PBS/0.5% BSA/0.05% Polysorbate™ 20/0.01% Thimerosal™/1 mM CaCl2 /1 mM MgCl2.
# After blocking, the plates were washed again three times with ELISA wash buffer. […] After a 2-hour incubation period, the plates were washed six times with ELISA wash buffer and 100 μL of the mouse serum sample being tested or the standard containing the homologous recombinant human anti-CD18 Fab were added. The mouse serum samples were first diluted 1/10 in ELISA diluent and then a further 1/4 into sample diluent; 100 μL was taken from this initial 1/40 dilution. Sample diluent is 10% Swiss Webster Mouse serum in ELISA diluent.
# Following a second 2-hour incubation, the plates were again washed six times with ELISA wash buffer and 100 μL of horseradish-peroxidase-conjugated F(ab')2 directed against a human Fab was added. After a 1-hour incubation at ambient temperature, the plates were washed with ELISA wash buffer as described above and 100 μL of phosphate-buffered saline, pH 7.2, containing 2.2 mmol/L orthophenylene diamine (OPD) and 0.012% (v/v) hydrogen peroxide (H2 O2) was added to each well. When color had fully developed, the reaction was stopped with 100 μL per well of 4.5 mol/L sulfuric acid. The absorbance of the well contents was measured at 492 nm minus 405 nm background absorbance using an automatic plate reader from SLT Labinstruments. Data were reduced by using a four-parameter, curve-fitting program based on an algorithm for least-squares estimation of non-linear parameters.
# Serum concentration versus time data were analyzed utilizing a non-linear curve-fitting program and subsequent pharmacokinetics parameters were estimated.
molecule,measurement,setting,value
B1,AUC/dose/W (dose-normalized area under the serum concentration versus time curve),,23 µg·h/mL
same,CL/W (weight-normalized serum clearance),,1.33 mL/min/kg
same,Tmax (time of maximum observed concentration),,5.0 min
same,V1/W (volume of the central compartment),,0.0423 L/kg
same,t1/2 α (initial half-life),,4.8 min
same,t1/2 β (terminal half-life),,55.2 min
same,clearance,"iv, 2 mg/kg",1.33 mL/min/kg
same,clearance relative to double-disulfide (Fab')2,"iv, 2 mg/kg",about three-fold higher
same,cleared from the serum more slowly than the original Fab,"iv, 2 mg/kg",2 fold
